Assay results taken from PubChem BioAssay AID485344 (National Center for Advancing Translational Sciences (NCATS), 2010).
Hit rate of the full screen: of about 340,000 compounds, about 6,900 (2%) were called active. Rule as the data show it: active = inhibition above about 30%; inactive = below that, where a call was filed. This is a selection; strong and weak results do not stand in their true shares. Entries without a call were filed so in the source.

target: D(2) dopamine receptor (Homo sapiens) (UniProt P14416); assay: HTS Assay for Allosteric Antagonists of the Human D2 Dopamine Receptor: Primary Screen for Antagonists; conditions: HEK293 TREx D2 cells, calcium flux, dopamine EC80; at 10 µM; stronger effect = higher value; also: 0% is about no effect
UniProt P14416, sequence (P14416 whole entry, looked up): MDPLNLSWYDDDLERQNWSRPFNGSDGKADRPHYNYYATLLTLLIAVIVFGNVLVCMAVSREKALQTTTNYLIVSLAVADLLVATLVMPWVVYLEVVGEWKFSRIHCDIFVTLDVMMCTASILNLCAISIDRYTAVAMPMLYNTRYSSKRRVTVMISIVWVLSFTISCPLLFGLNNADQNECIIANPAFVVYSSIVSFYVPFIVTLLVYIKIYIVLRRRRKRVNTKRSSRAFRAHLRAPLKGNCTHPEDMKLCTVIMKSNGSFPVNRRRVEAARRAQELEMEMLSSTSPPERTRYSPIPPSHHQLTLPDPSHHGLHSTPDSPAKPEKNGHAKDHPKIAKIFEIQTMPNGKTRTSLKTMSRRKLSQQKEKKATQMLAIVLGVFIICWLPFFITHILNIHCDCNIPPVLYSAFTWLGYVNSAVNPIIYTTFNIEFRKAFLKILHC
How it was run: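 Tetracycline-induced HEK293 TREx cells expressing D2 receptor forced-coupled to calcium signalling, loaded with no-wash calcium dye. Compounds added and calcium flux read 180 s, then dopamine added at EC80 and read a further 180 s.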

Structure (SMILES) | inhibition
CCCCn1cc(S(=O)(=O)c2ccc(OC)cc2)c(=O)c2cc(CC)ccc21 | 0.248%
CNC(=O)C1CCC(Cn2c(=O)c3sccc3n(CC(=O)Nc3ccc(C)c(C)c3)c2=O)CC1 (stereo not drawn) | 5.66%
COc1ccc(CCNC(=O)C2CCC(CNS(=O)(=O)c3ccc(C)cc3)CC2)cc1OC (stereo not drawn) | 17.8%
CCOCCCn1c(SCC(=O)OCC)nc2c(sc3ccccc32)c1=O | -21.9%
COCCNC(=O)CSc1nc(-c2cc(OC)c(OC)c(OC)c2)[nH]c1-c1ccc(Cl)cc1 | 18.5%
Cc1cccc(C(C)C)c1NC(=O)C1CCCN1S(=O)(=O)c1cccc2nsnc12 (stereo not drawn) | -7.87%
CCOc1cccc(N2C(=O)CC(NNC(=O)c3ccc(Br)o3)C2=O)c1 (stereo not drawn) | active: 38.1%
CCC1CN(C(=O)N2CCC(C(=O)NCCc3ccccc3Cl)CC2)c2cc(C)ccc2O1 (stereo not drawn) | 23.6%
CCCC(O)c1nc2ccccc2n1Cc1ccccc1OC (stereo not drawn) | 3.62%
COc1cc(NC(=O)CN2c3ccccc3S(=O)(=O)c3ccccc32)cc(OC)c1 | 11.6%
Cc1ccc(Nc2nnc(-c3ccc(C)c(S(=O)(=O)N4CCN(C)CC4)c3)c3ccccc23)cc1 | -7.49%
Cc1ccc(C)c(NC(=O)c2cc(S(=O)(=O)N3CCCc4ccccc43)ccc2F)c1 | -6.37%
CC(C)=N/N=C1/NC(=O)C(CC(=O)Nc2cc(Cl)ccc2C)S1 (stereo not drawn) | active: 46.1%
CCOC(=O)c1ccc(NS(=O)(=O)c2ccc(-c3cc(C)no3)cc2)cc1 | -0.949%
Cc1cc(C)c(OCC(=O)N(Cc2ccco2)Cc2ccco2)c(C)c1 | 4.91%
COc1ccc(Cn2ccc3nc(C)c(C(=O)Nc4cc(C)cc(C)c4)cc3c2=O)cc1 | 17.6%
Cc1nc2ccccc2c(=O)n1-c1ccc(NC(=O)c2cccc([N+](=O)[O-])c2)cc1 | -1.44%
CSc1ncc(C(=O)Nc2c(C)cccc2C)c(-c2ccccc2)n1 | 15.1%
COc1ccccc1CCNC(=O)c1ccc(-c2nc(CSc3ccc(C)cc3)c(C)o2)cc1 | -1.25%
CCCCNC(=O)C(Cc1ccccc1)NS(=O)(=O)c1ccc2c(c1)c(=O)n(C)c(=O)n2C (stereo not drawn) | 5.87%
CCn1c(=N)c(C(=O)NCc2ccccc2)cc2c(=O)n3cc(C)ccc3nc21 | 1.2%
CCC1CN(C(=O)NCc2ccc(C)cc2)c2ccccc2O1 (stereo not drawn) | -18.9%
CC(C)c1ccc(N2C(=O)CS(=O)(=O)C23C(=O)N(Cc2cccc(F)c2)c2ccccc23)cc1 (stereo not drawn) | 13.6%
CCC(C)NC(=O)Cn1ccc2cc(S(=O)(=O)N3CCCCC3)ccc21 (stereo not drawn) | 7.71%

Structure (SMILES) | inhibition
Cc1cccc(N2CCN(C(=O)CN3C(=O)COc4ccc(S(=O)(=O)N5CCCCCC5)cc43)CC2)c1C | -10.5%
CCCCOc1cccc(C(=O)Nc2cccc(-c3nc4ncccc4o3)c2C)c1 | 11.2%
Cc1ccc(NC(=O)C2CCCN(c3ncnc4onc(-c5ccc(F)cc5)c34)C2)c(Cl)c1 (stereo not drawn) | 6.47%
O=C(CSc1nccn1C1CCCC1)Nc1ccc(C(F)(F)F)cc1 | 20.8%
CC(C)CCN1C(=O)c2ccccc2CC1(C)C(=O)NC1CCC(C)CC1 (stereo not drawn) | -5.27%
CC(C)c1ccc(-c2nc(C(N)=O)c3c(n2)n(-c2ccc4c(c2)OCO4)c(=O)n3C)cc1 | -9.08%
O=C(Nc1cccc(F)c1)[C@H](CSCc1ccccc1)N1Cc2ccccc2C1=O | -18.5%
CCOc1ccc(NC(=O)Cn2cc(S(=O)(=O)NC)c(S(=O)(=O)NC)c2)cc1 | 0.615%
COc1ccc(NC(=O)C2CCN(S(=O)(=O)c3ccc4[nH]c5c(c4c3)CCCCC5)CC2)cc1 | 3.2%
CCCCCSc1nnc(-c2ccc(Br)cc2)o1 | -12.6%
CC1CCCN(CCCNC(=O)c2coc3nc4ccccc4nc23)C1 (stereo not drawn) | active: 32.6%
Cc1ccc(Cl)cc1-n1c(=O)c2sc3ccccc3c2n(Cc2ccccc2)c1=O | 7.12%
CCOc1cc(-c2nnc(SCC(=O)NC3CCCC3)nc2-c2ccc(OC)c(OCC)c2)ccc1OC | 12.3%
CCOc1ccc(-n2ccnc2SCC(=O)Nc2nc3ccc(C)cc3s2)cc1 | 2.36%
COc1cccc(NC(=O)N2C3CCCC2CC(NC(=O)C2CC2)C3)c1 (stereo not drawn) | active: 34.1%
Cc1nn(-c2ccccc2)c2c1N(CC(=O)N1CCN(c3ccc(F)cc3)CC1)C(=O)CS2 | 3.58%
CC1(C)C(=O)N(CC(=O)Nc2cccc(F)c2)c2ccc(S(=O)(=O)N3CCCCC3)cc21 | 20.2%
COc1cccc2cc(C(=O)Nc3ccc(F)c(F)c3)c(=O)oc12 | 5.35%
O=C(Cn1c(=O)n(Cc2cccs2)c(=O)c2cccnc21)Nc1ccc(F)cc1 | 14.7%
CCOc1ccc(NC(=O)Cn2c(=O)n(-c3ccccc3)c(=O)c3ccc(C(=O)NCc4ccc5c(c4)OCO5)cc32)cc1 | 6.15%
Cc1ccccc1S(=O)(=O)Cc1ccc(C(=O)NC2CCC(C)CC2)o1 (stereo not drawn) | -7.81%
CC(C)NC(=O)CN1C(=O)C(C)(C)Oc2ccc(C(=O)NC3CCCCC3)cc21 | active: 31.5%
Cc1ccc(CNC(=O)C2CCN(S(=O)(=O)c3ccc4[nH]c(=O)ccc4c3)CC2)cc1 | -4.35%
CCC(C)NC(=O)CSc1nc2cc3c(cc2c(=O)n1CCCCCC(=O)NCc1ccc2c(c1)OCO2)OCO3 (stereo not drawn) | 14.7%

Structure (SMILES) | inhibition
Cc1cc(-c2ccc(C)c(S(=O)(=O)NCCc3ccc(S(N)(=O)=O)cc3)c2)on1 | -0.284%
CC(C)c1ccc(NS(=O)(=O)c2ccc3[nH]cc(C(=O)NCC4CCCO4)c(=O)c3c2)cc1 (stereo not drawn) | 0.036%
CCOc1ccc2nc(N3CCCC(C(=O)Nc4ccc(OC)c(Cl)c4)C3)sc2c1 (stereo not drawn) | 1.07%
CCN(CCCC(=O)c1ccc(F)cc1)CCc1ccccc1 | active: 102%
CN(C)S(=O)(=O)c1ccc2c(c1)N(CC(=O)Nc1ccc(F)cc1)C(=O)CS2 | 2.01%
c1ccc(Cn2nnnc2C(c2cccs2)N2CCSCC2)cc1 (stereo not drawn) | active: 32.9%
Cc1ccc(Cn2c(SCC(=O)NCc3ccccc3Cl)nc3ccsc3c2=O)cc1 | -9.15%
Fc1ccc(Nc2nc(SCc3ccccc3F)nc3ccccc23)cc1 | 12%
CCOC(=O)c1cc2c(=O)n3ccccc3nc2n(Cc2ccco2)c1=NC(=O)c1cccc(F)c1 | -15.1%
COc1cc(NC(=O)CCCc2nnc3n(CC(C)C)c(=O)c4sccc4n23)cc(OC)c1 | 10.8%
O=C(NCC(c1ccco1)N1CCN(c2ccccc2F)CC1)c1ccco1 (stereo not drawn) | active: 53.7%
Cc1cc([N+](=O)[O-])ccc1NC(c1nnc(-c2ccccc2)o1)c1ccccc1F (stereo not drawn) | 1.58%
CC(=O)N1CCc2cc(Br)cc(S(=O)(=O)CCC(=O)N3CCN(c4ccccc4)CC3)c21 | -0.622%
Cc1cccc(N2CCN(C(=O)CN3C(=O)COc4ccc(S(=O)(=O)N5CCOCC5)cc43)CC2)c1C | -6.29%
CCC1CCCCN1C(=O)CSc1nc(-c2ccc(OC)c(OC)c2)cc(C(F)(F)F)n1 (stereo not drawn) | 4.96%
CC1=C(C(=O)OC2CCCCCC2)C(c2cccc(F)c2F)CC(=O)N1 (stereo not drawn) | 17.3%
O=C1/C(=C\c2ccco2)SC(=S)N1c1ccccc1 | active: 47.5%
CCc1ccc(S(=O)(=O)Nc2ccc3[nH]c(=O)sc3c2)cc1 | -0.163%
Cc1cccc(NC(=O)c2sc3nc4c(cc3c2N)CN(C(C)C)CC4)c1 | 13.7%
COCCCNC(=O)CSc1nc2cc3c(cc2c(=O)n1CCCCCC(=O)NCc1ccc2c(c1)OCO2)OCO3 | -4.96%
CCCCNC(=O)C1CCC(CNS(=O)(=O)c2ccc(C)cc2)CC1 (stereo not drawn) | 11%
Cc1nc(NC(=O)c2c(-c3ccccc3)c(-c3ccccc3)nn(C)c2=O)sc1C | 11.5%
Cc1ccc(NC(=O)Cn2c(=O)n(CCCCC(=O)NCCc3ccc(Cl)cc3)c(=O)c3ccccc32)cc1 | -0.157%
COc1ccc(CNC(=O)CN2C(=O)COc3ccc(S(=O)(=O)N4CCC(C)CC4)cc32)cc1 | -0.714%

Structure (SMILES) | inhibition
O=C(NCCN1CCN(c2ccccc2)CC1)c1cccc(Br)c1 | active: 78%
COc1ccc(CCNC(=O)c2oc(=O)c3ccccc3c2-c2ccccc2)cc1OC | 4.74%
COc1cc(NC(=O)CCS(=O)(=O)c2nc(-c3ccc4c(c3)OCO4)cc(C(F)(F)F)n2)cc(OC)c1OC | 9.99%
COCCCN1C(=O)c2[nH]nc(-c3ccccc3O)c2C1c1ccc(OCc2ccccc2)cc1 (stereo not drawn) | 16.9%
CCc1c(C)sc2c1CCN(C(=O)Nc1cc(C)cc(C)c1)C2c1ccccc1 (stereo not drawn) | -4.73%
COc1ccccc1NC(=O)C1CCN(S(=O)(=O)c2ccc3[nH]c4c(c3c2)CCCCC4)CC1 | 5.26%
CCN1CCN(C(c2ccc(SC)cc2)c2c(O)cc(C)n(Cc3ccco3)c2=O)CC1 (stereo not drawn) | -2.5%
Cc1cc(C)c(NC(=O)CCn2c(=O)c3cccn3c3ccccc32)c(C)c1 | -4.38%
Oc1ccc(-c2nc(-c3ccccc3)c(-c3ccc(Br)cc3)[nH]2)cc1 | 7.37%
O=C(COC(=O)C(Cc1c[nH]c2ccccc12)NC(=O)c1ccc(Cl)cc1)c1ccc(Cl)cc1 (stereo not drawn) | 1.09%
Cc1nn(-c2ccccc2)c2c1cc1c(=O)n(C)c(=O)nc-1n2-c1cccc(Cl)c1 | 24.2%
CCOc1ccc(CCn2c(-c3ccco3)nc3ccccc3c2=O)cc1OCC | active: 35.8%
COc1ccc(-c2cc(=O)c3cc(OCC(=O)OC(C)C)ccc3o2)cc1 | -9.91%
COc1cc(CCNC(=O)c2ccc3c(c2)c(C)c(C)n3Cc2cccc(C)c2)cc(OC)c1OC | 2.19%
COCCCn1c(=N)c(C(=O)NCc2cccnc2)cc2c(=O)n3cc(C)ccc3nc21 | -15.1%
CN(C)S(=O)(=O)c1cccc(C(=O)Nc2ccc(Cl)cn2)c1 | active: 36.9%
Cc1cc(C)c2c(-n3cccc3)c(C(=O)NCc3cccc(F)c3)sc2n1 | 5.49%
CCOc1ccc(NC(=O)c2nc3nc(C)cc(C(F)F)n3n2)cc1 | -7.72%
CN1C(=O)/C(=C\c2ccc(N(C)C)cc2)OC1=S | active: 47.5%
CCc1nnc(SCc2ccc(OC)cc2)c2cc3sc(C)cc3n12 | 6.68%
O=C(CCn1ccc2cc(S(=O)(=O)N3CCCC3)ccc21)NCc1cccc(Cl)c1 | 5.26%
